Assay results from PMC10924105.
Numbering of substitutions follows the chain as printed. Names and notes keep the numbering of the source. These are yes or no findings as the source states them, for the method shown. In cells and extracts the contact can be indirect. Some results given as binding are weak or reduced against the parent protein; the word gives no strength. For some assays here: Tags and fused reporters may be left off the sequences shown.

Protein sequences, listed by entry. Tags and fused reporters are not part of them. Residues count along the entry.
UniProt P11021, residues 19-654: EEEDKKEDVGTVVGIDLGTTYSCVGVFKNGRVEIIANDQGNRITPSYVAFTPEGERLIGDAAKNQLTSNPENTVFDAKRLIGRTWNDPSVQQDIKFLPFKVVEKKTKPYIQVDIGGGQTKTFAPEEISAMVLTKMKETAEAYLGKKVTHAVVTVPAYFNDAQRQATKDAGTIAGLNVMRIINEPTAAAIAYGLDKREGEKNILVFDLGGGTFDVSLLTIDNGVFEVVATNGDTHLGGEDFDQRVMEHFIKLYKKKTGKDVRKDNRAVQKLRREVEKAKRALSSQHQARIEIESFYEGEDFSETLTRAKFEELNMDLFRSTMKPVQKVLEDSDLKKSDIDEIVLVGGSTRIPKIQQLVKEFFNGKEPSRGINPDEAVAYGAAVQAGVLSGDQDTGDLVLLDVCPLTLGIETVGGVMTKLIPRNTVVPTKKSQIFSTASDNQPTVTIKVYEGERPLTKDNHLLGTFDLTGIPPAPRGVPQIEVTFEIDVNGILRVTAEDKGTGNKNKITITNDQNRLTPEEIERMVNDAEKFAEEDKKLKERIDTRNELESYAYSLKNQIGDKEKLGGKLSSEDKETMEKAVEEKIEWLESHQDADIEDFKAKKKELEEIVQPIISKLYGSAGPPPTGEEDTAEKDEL

T1: asialoglycoprotein receptor 1 (ASGR1), endogenous in HepG2 cells (human (endogenous in HepG2)) (UniProt P07306)
T1 sequence: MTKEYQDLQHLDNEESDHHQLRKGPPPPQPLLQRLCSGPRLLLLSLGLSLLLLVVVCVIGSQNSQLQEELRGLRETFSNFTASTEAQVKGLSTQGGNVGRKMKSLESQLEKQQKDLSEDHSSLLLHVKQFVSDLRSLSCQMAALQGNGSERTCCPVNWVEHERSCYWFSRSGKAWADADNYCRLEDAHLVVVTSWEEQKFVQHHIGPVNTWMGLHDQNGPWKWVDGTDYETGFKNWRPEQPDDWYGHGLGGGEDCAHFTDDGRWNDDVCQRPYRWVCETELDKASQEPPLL

T2: HA-tagged ASGR1 (WT) (UniProt P07306)
T2 sequence: T1 sequence

T3: HA-tagged ASGR1 triple Ala-mutant (3A) (UniProt P07306)
T3 sequence: T1 sequence with Q240A, W244A, E253A

T4: HA-tagged ASGR1 fragment, 161-291 aa domain (UniProt P07306)
T4 sequence: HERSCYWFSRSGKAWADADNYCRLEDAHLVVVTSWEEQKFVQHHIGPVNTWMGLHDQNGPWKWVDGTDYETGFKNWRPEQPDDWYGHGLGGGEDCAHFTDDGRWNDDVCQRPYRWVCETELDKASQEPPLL

B1: Golgi Protein 73 (GP73), endogenous in HepG2 cells (protein, UniProt Q8NBJ4 1-401)
chain: MMGLGNGRRSMKSPPLVLAALVACIIVLGFNYWIASSRSVDLQTRIMELEGRVRRAAAERGAVELKKNEFQGELEKQREQLDKIQSSHNFQLESVNKLYQDEKAVLVNNITTGERLIRVLQDQLKTLQRNYGRLQQDVLQFQKNQTNLERKFSYDLSQCINQMKEVKEQCEERIEEVTKKGNEAVASRDLSENNDQRQQLQALSEPQPRLQAAGLPHTEVPQGKGNVLGNSKSQTPAPSSEVVLDSKRQVEKEETNEIQVVNEEPQRDRLPQEPGREQVVEDRPVGGRGFGGAGELGQTPQVQAALSVSQENPEMEGPERDQLVIPDGQEEEQEAAGEGRNQQKLRGEDDYNMDENEAESETDKQAALAGNDRNIDVFNVEDQKRDTINLLDQREKRNHTL
B2: PLVAP, endogenous in HepG2 cells (protein, UniProt Q9BX97 1-442)
chain: MGLAMEHGGSYARAGGSSRGCWYYLRYFFLFVSLIQFLIILGLVLFMVYGNVHVSTESNLQATERRAEGLYSQLLGLTASQSNLTKELNFTTRAKDAIMQMWLNARRDLDRINASFRQCQGDRVIYTNNQRYMAAIILSEKQCRDQFKDMNKSCDALLFMLNQKVKTLEVEIAKEKTICTKDKESVLLNKRVAEEQLVECVKTRELQHQERQLAKEQLQKVQALCLPLDKDKFEMDLRNLWRDSIIPRSLDNLGYNLYHPLGSELASIRRACDHMPSLMSSKVEELARSLRADIERVARENSDLQRQKLEAQQGLRASQEAKQKVEKEAQAREAKLQAECSRQTQLALEEKAVLRKERDNLAKELEEKKREAEQLRMELAIRNSALDTCIKTKSQPMMPVSRPMGPVPNPQPIDPASLEEFKRKILESQRPPAGIPVAPSSG
B3: Flag-tagged GP73 (WT) (protein, UniProt Q8NBJ4 1-401)
chain: B1 chain
B4: Flag-tagged GP73 fragment, 56-205 aa domain (domain or fragment, UniProt Q8NBJ4 56-205)
chain: AAAERGAVELKKNEFQGELEKQREQLDKIQSSHNFQLESVNKLYQDEKAVLVNNITTGERLIRVLQDQLKTLQRNYGRLQQDVLQFQKNQTNLERKFSYDLSQCINQMKEVKEQCEERIEEVTKKGNEAVASRDLSENNDQRQQLQALSE
B5: Flag-tagged GP73-N144A (protein, UniProt Q8NBJ4 1-401)
chain: B1 chain with N144A

Key:
[1] = molecular target: T1, asialoglycoprotein receptor 1 (ASGR1), endogenous in HepG2 cells (human (endogenous in HepG2)); assay: co-IP; endogenous Co-IP in HepG2 cells, western blot
[2] = molecular target: immunoglobulin heavy chain binding protein (BIP), overexpressed (UniProt P11021); assay: co-IP; exogenous Co-IP in hepatocytes overexpressing GP73 and BIP, with ASGR1 knockdown (interaction increased) or ASGR1 overexpression (binding reduced)
[3] = molecular target: T2, HA-tagged ASGR1 (WT); assay: co-IP; exogenous Co-IP in HepG2 cells cotransfected for 24 h with HA-tagged ASGR1 and Flag-tagged GP73 constructs; lysates in NP40 buffer (1% NP40, 150 mM NaCl, 40 mM Tris pH 7.5); anti-HA or anti-Flag magnetic beads, 4 °C overnight; western blot
[4] = molecular target: T3, HA-tagged ASGR1 triple Ala-mutant (3A); assay: as above
[5] = molecular target: T4, HA-tagged ASGR1 fragment, 161-291 aa domain; assay: as above

Binder	binding [1]	binding [3]	further results
B1	binds	–	–
B2	binds	–	–
B3	–	binds	binding [2]: binds; binding [4]: no binding; binding [5]: binds
B4	–	binds	–
B5	–	no binding	–
